The campaign covered roughly 310,000 compounds. About 2,200 (0.71%) showed an effect of 50% or more. Effects have a minus sign here. The list shows a part of the results.
The molecules below were run against human ether-à-go-go-related gene (hERG) potassium channel (human, UniProt Q12809) (assay: primary screen, population patch clamp on CHO cells stably expressing hERG).
Chain of human ether-à-go-go-related gene (hERG) potassium channel (Q12809 whole entry, looked up): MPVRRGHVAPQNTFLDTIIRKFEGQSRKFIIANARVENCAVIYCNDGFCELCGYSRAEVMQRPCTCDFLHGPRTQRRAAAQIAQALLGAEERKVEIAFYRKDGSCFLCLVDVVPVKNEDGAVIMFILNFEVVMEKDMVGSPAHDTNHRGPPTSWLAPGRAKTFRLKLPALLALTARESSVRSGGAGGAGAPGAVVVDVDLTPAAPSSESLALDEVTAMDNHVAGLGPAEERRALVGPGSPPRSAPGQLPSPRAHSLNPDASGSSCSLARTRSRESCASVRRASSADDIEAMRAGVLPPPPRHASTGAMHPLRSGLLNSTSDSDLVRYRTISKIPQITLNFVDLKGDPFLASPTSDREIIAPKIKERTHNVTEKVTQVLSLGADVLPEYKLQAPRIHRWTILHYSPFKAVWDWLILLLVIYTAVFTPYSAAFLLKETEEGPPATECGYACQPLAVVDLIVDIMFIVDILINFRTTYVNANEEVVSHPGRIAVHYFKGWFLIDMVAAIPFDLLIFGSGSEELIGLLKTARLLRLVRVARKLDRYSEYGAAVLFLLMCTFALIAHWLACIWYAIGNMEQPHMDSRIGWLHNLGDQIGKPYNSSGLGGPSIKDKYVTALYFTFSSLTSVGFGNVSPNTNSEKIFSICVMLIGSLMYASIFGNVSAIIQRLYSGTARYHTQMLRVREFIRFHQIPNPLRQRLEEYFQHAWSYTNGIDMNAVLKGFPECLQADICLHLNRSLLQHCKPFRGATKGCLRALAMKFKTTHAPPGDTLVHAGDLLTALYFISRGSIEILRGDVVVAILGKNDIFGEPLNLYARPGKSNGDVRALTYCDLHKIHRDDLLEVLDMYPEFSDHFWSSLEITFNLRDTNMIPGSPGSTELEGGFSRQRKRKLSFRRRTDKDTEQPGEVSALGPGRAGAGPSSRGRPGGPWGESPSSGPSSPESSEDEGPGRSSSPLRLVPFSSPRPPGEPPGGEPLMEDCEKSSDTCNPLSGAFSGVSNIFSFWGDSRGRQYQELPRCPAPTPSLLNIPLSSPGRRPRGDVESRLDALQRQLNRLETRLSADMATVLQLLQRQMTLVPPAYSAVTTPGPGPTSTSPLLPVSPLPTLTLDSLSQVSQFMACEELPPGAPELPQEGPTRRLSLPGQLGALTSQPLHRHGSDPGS

Structure (SMILES) | hERG current change (%, negative = inhibition) at 1uM [%]
COc1ccc(-n2c(C)nn(CCOc3ccccc3)c2=O)cc1 | 2.62
O=C(O)c1ccc(NC(=O)c2cn(-c3ccccc3)nc2-c2ccc(Br)cc2)cc1 | 12.8
O=C(c1cccc(F)c1)N1CCN(C(=O)C(c2ccccc2)c2ccccc2)CC1 | -11.4
C=CCOC(=O)C1=C[C@@H](c2ccc(C(F)(F)F)cc2)[C@H](CCCO)[C@@H](OCC)O1 | -6.23
CCC(C)N(C(=O)C(F)(F)F)C(C(=O)NC1CCCCC1)c1ccncc1 (centres unmarked) | 1.64
O=C1CCC(CCC(=O)N2CCCC(C(=O)c3ccc4c5c(cccc35)CC4)C2)=NN1 (centres unmarked) | -26.5
Cc1ccccc1C(=O)NNC(=O)CCCCC(=O)NNC(=O)c1ccccc1C | 10.8
COC(=O)CSc1cc(C)nc2ccc(OC)cc12 | -4.96
CCOc1nsc(OCC)n1 | 1.94
CCc1nnc(NC(=O)CSc2nnc(-c3ccoc3C)n2CC(C)C)s1 | 7.66
CN(CC(=O)NC1CCN(Cc2ccccc2)CC1)S(=O)(=O)c1ccc(Cl)cc1 | 1.3
CC(=O)c1cccc(NC(=O)CSc2ccc(-c3ccccn3)nn2)c1 | 3.73
O=C(Nc1ccc(Cl)cc1C(=O)N1CCCC1)c1cccc([N+](=O)[O-])c1 | 2.77
COc1ccc(NC(=O)C2CCCN(S(=O)(=O)c3c(C)[nH]c(=O)[nH]c3=O)C2)cc1Cl (centres unmarked) | 11.3
NC12CC3CC(C1)CC(CO)(C3)O2 | 13.6
CSCC[C@H](NC(=O)c1cc([N+](=O)[O-])ccc1Cl)c1nc2ccccc2[nH]1 | -9.02
CCOc1ccc(S(=O)(=O)N2CCN(Cc3ccc4c(c3)OCO4)CC2)cc1OCC | 9.46
Cn1ncc([N+](=O)[O-])c1C(=O)Nc1ccc(-c2ccccc2)cc1 | 12.3
CCO[C@@H]1OC(C(=O)NCc2nc3ccccc3[nH]2)=C[C@H](C2CCCCC2)[C@H]1CCCO | 11.9
COc1ccc(/C=C2\Oc3cc(OCC(=O)N4CCC[C@H]4CO)ccc3C2=O)c(OC)c1 | 8.56
Cc1ccoc1C(=O)NCCCNC(=O)c1occc1C | 20
Cc1ccc2nc(N/N=C/c3ccco3)cc(C)c2c1 | -62.9

Structure (SMILES) | hERG current change (%, negative = inhibition) at 1uM [%]
Cc1cc(Cl)c(C(=O)Nc2cccc(C(F)(F)F)c2)c(C)n1.Cl | 6.71
COc1ccc(S(=O)(=O)Nc2cccc(C)c2C)c2cccnc12 | 15.2
CC(NCc1ccc(Cl)c(Cl)c1)C(O)c1ccccc1.Cl (centres unmarked) | 6.93
Cc1ccc(-c2csc(NC(=O)C[n+]3cc(-c4ccc(C)cc4)n4c3CCC4)n2)cc1.[Cl-] | 2.27
O=C(NCC1CCCO1)c1ccc2ccccc2n1 (centres unmarked) | -0.826
COc1ccccc1NC(=O)C1=C(C)Nc2nnnn2C1c1cccc(Br)c1 (centres unmarked) | 10.6
CCOC(=O)C1C(c2ccccc2)N(C)OC1(O)C(F)(F)F (centres unmarked) | 9.96
CCOC(=O)c1cnn(-c2ccccc2)c1NC(=O)CN1CCCCC1 | 15.3
Cc1ccc(F)cc1NC(=O)c1cccc2nccnc12 | 0.276
O=C(c1ccc(F)cc1)C1CCN(Cc2cn[nH]c2-c2ccc(F)cc2)CC1 | -78.9
Cc1cccc(CN2CCC(CNC(=O)CSc3cc(=O)n(C)c4cc(Cl)ccc34)CC2)c1 | -16.7
COc1ccc(NC(=O)CSc2n[nH]c(N)n2)cc1OC | 14.5
COC(=O)N1C(=O)[C@](c2ccccc2)(C(C)C)N1C(=O)OC | 13.8
O=C(Nc1ccc(-c2cn3ccccc3n2)cc1)c1ccco1 | 3.72
O=[N+]([O-])c1ccccc1/C=C/C=N/n1c(-c2ccccc2F)n[nH]c1=S | 14.2
COc1cccc(N2C(=O)Nc3ccccc3C2(O)C(=O)NCc2ccc3c(c2)OCO3)c1 (centres unmarked) | -9.36
CCC(=O)N(Cc1ccc2c(c1)OCO2)Cc1cc2cc(OC)ccc2[nH]c1=O | -7.88
CC1CCCCN1CCNc1nc(=S)[nH]c2ccccc12 (centres unmarked) | -46.9
CN(CCCOc1ccccc1Br)Cc1ccccc1 | -2.9
C=CCN1N=C(c2ccc(NC(=O)c3ccccc3)cc2)CSC1=O | 13.3
Cc1ccc(N(C)C(=O)c2cc(S(=O)(=O)N3CCCC3)cn2C)cc1 | 11.4
Cc1ccc(-c2nc(N3CCOCC3)s[n+]2-c2ccccc2)cc1.[O-][Cl+3]([O-])([O-])[O-] | 9.64

Structure (SMILES) | hERG current change (%, negative = inhibition) at 1uM [%]
CN(C)CCCNc1ncnc2sc(-c3ccccc3)cc12.O=C(O)C(=O)O | -9.73
NC(=O)CN1CCN(Cc2ccc3c(c2)OCO3)CC1 | 22.5
CCc1[nH]c(=S)c(C#N)c(-c2ccccc2)c1C(=O)OC | 17.6
COC(=O)c1cc(NC(=O)C23CCC(C)(C(=O)O2)C3(C)C)cc(C(=O)OC)c1 (centres unmarked) | 9.8
Cc1cccc(C(=O)O/N=C(\N)c2cccc([N+](=O)[O-])c2)c1 | 3.03
COc1ccc(OC)c(NC(=O)COC(=O)Cc2ccc(Br)cc2)c1 | 1.61
COCCn1c(SCC(=O)Nc2nnc(C)s2)nnc1-c1ccoc1C | 22.9
CC(=O)Nc1ccc2c(c1)ncn2C1CCCCC1 | -3.63
CC(C)C1NC2(C(=O)c3ccccc3C2=O)C2C(=O)N(c3ccc(F)cc3)C(=O)C12 (centres unmarked) | -1.42
CCOC(=O)c1c(C(=O)OCC)c(C)n(CCc2ccc(OC)c(OC)c2)c1C | 7.1
Cc1ccc(Cl)cc1NC(=S)N1CCCCCC1 | 11.2
COc1cc(C(=O)N2CCN(C(=O)Cc3ccccc3)CC2)cc(OC)c1OC | -1.15
COc1ccc(Nc2nc(-c3cccs3)nc3ccccc23)c(OC)c1 | -2.14
COc1cccc(OC)c1C1=CC(=O)C[C@H](c2ccc3c(c2)OCO3)C1 | 11
CCC(C(=O)Nc1ccc2c(c1)OCCO2)n1c(=O)[nH]c2ccccc2c1=O (centres unmarked) | 12
C/C(=N\O)C1(C)N(O)C(C)(C)C(c2ccc(F)cc2)=[N+]1[O-] (centres unmarked) | 13.8
COc1ccc(Nc2nc(-c3cccnc3)nc3ccccc23)cn1 | 1.82
S=C(NCCN(C1CCCCC1)C1CCCC1)Nc1cccc(Cl)c1 | -33.4
C/C(=N\NC(=S)NCCc1ccccc1)c1ccc(O)cc1O | 11.4
COc1ccc2c(c1OC)C(=O)O[C@H]2[C@@H]1c2cc3c(cc2CCN1C)OCO3 | 10.3
COc1ccc(NS(=O)(=O)c2cc(C(=O)Nc3ccccc3C(=O)O)ccc2C)cc1 | 9.2
CC1(C)CC2CC(C)(CN2S(=O)(=O)c2ccc(F)cc2F)C1 (centres unmarked) | 10

Structure (SMILES) | hERG current change (%, negative = inhibition) at 1uM [%]
CCOC(=O)C(=CNc1ccc(C(F)(F)F)cc1)C(=O)OCC | 13.3
CCCN(CCC)CCNC(=O)C1c2ccccc2C(=O)N(CCOC)C1c1ccc(F)cc1 (centres unmarked) | 5.06
Cc1ccc(C(C)(C)NC(=O)C2CCC(=O)N(C3CCCCCC3)C2)cc1 (centres unmarked) | 0.0386
Cc1ncc(CO)c2c1Oc1nc(-c3ccccc3)nc(SCC(=O)N3CCCCC3)c1C2 | 12.9
COc1ccccc1NC(=O)CSc1nnc(Cc2ccccc2)o1 | -1.11
CC(=O)c1ccc(NC(=O)CSc2nc3nc(C)cc(C)n3n2)cc1 | -0.696
Cc1ccc2oc(=O)c3cnn(CC(=O)N4CCCCC4C)c3c2c1 (centres unmarked) | 2.28
COc1ccc(N=C(N(C)C)P(=O)(N(C)C)N(C)C)cc1 | -0.0596
COc1ccccc1C(=O)Nc1ccc2c(c1)nc1n2CCSC1 | 3.31
O=C(NCC(=O)N(Cc1cccs1)C(C(=O)NC1CCCCC1)c1ccncc1)c1ccco1 (centres unmarked) | -0.88
COc1ccc(S(=O)(=O)NCC(=O)Nc2ccc3c(c2)OCCO3)cc1OC | 14
COC(=O)N1N=C(c2ccc(Br)cc2)CC1(O)C(F)(F)F (centres unmarked) | 6.6
c1ccc(-c2nnc(N3CCOCC3)nc2-c2ccccc2)cc1 | 4.57
Cc1cc(/C=N/NC(=O)c2ccsc2)c(C)n1-c1cnccn1 | 23.4
COC(=O)COc1cccc2c(=O)n(CC(=O)NCc3ccccc3)ccc12 | 8.53
CN(CCNC(=O)c1cc2c(=O)n(C)c3ccccc3c2n1C)Cc1ccccc1 | 6.05
COCC(=O)Nc1nc(-c2ccccc2)ns1 | -8.41
Cc1ccc(S(=O)(=O)/N=C2/NC(=O)/C(=C\c3cc(Br)cc(Br)c3O)S2)cc1 | 4.92
O=C(Nc1ccccc1Oc1cccnc1)C1CCCN(C/C=C/c2ccccc2)C1 (centres unmarked) | -46.2
COc1ccc(OC)c(NC(=O)Cn2cnc3c(cnn3-c3ccccc3)c2=O)c1 | 9.32
